Assay results published in PubChem BioAssay AID1508623 (National Center for Advancing Translational Sciences (NCATS), 2021).
The whole screen tested about 48,000 compounds, of which about 450 (0.94%) were called active. Roughly 19% stayed inconclusive and do not appear here. The call rests on the fitted dose curve; in most records, active means well fitted inhibition curve with a large enough effect; inconclusive means small, poorly fitted or top-dose-only effect; inactive means no such curve, though single readings can be large or run the other way. Some of the results follow.

assay: Primary qHTS for Identification of Small Molecule Inhibitors of Huntingtin Promoter Activity; conditions: HEK293 HTT promoter firefly luciferase reporter (activity 0% = vehicle and -100% = no light), 24 h; series mostly up to 57.5 µM; activity change, negative = inhibition: at the top concentration; further: nearly all actives have a fitted effect of over 50% in size
From the text: Assay Provider: Russell L. Margolis M.D.
Department Neurology, Johns Hopkins University School of Medicine, Baltimore, MD
Huntington's Disease (HD) is a neurodegenerative disorder caused by a CAG repeat expansion in exon 1 of huntingtin (HTT). While there are currently no disease-modifying treatments for HD, recent efforts have focused on development of nucleotide-based therapeutics to lower HTT expression. As an alternative to siRNA or oligonucleotide methods, we hypothesized that suppression of HTT expression might be accomplished by small molecules that either (1) directly decrease HTT expression by suppressing HTT promoter activity or (2) indirectly decrease HTT expression by increasing the promoter activity of HTT-AS, the gene antisense to HTT that appears to inhibit expression of HTT.
We developed and employed a high throughput screen for modifiers of HTT and HTT-AS promoter activity using luminescent reporter HEK293 cells; of the 52,041 compounds tested, we identified 898 replicable hits. We used a rigorous stepwise approach to assess compound toxicity and the capacity of the compounds to specifically lower huntingtin protein in 5 different cell lines, including HEK293 cells, HD lymphoblastoid cells, mouse primary neurons, HD iPSCs differentiated into cortical-like neurons, and HD hESCs. We found no compounds which were able to lower huntingtin without lowering cell viability in all assays, though the potential efficacy of a few compounds at non-toxic doses could not be excluded.
SEQUENCE No. (1, 2, 3, etc.); […] (e.g., Cells, Incubation, Reagent, etc.); VALUE and DESCRIPTION.
1; Reagent; 4 uL; 2,500 Hek293 luciferase reporter cells per wells
3; Compound; 23 nL; Control inhibitor / compound library
5; Reagent; 2.5 uL; Firefly Luc reagent; Dual-Glo Luciferase Reporter Assay System (Promega)
6; Time; 10 min; room temperature incubation
7; Detection; Luminescence; FLuc
NOTES (numbers refer to sequence above)
1; High-throughput screening, measuring luminescence from a Hek293 luciferase reporter, was performed in 1,536 well white-walled tissue-culture treated plates. 2,500 cells were plated in 4 µL of Opti-MEM per well using a Multidrop Combi Reagent Dispenser (ThermoFisher).
2; Assay plates were cultured for 24 hours.
3; Control inhibitor (PTC124; final concentration of 50 uM) and compound library (at final concentrations of 460 nM - 57.5 uM) were added to the assay plate using the Kalypsis Pintool Robotic System equipped with 1536 pinheads.
4; Cells were then incubated for 24 hours at 37 degrees C prior to luminescence measurements.
5; In all cases, luminescence was measured using the Dual-Glo Luciferase Reporter Assay System (Promega) following the manufacturer's instructions.
6; Room temperature incubation.
7; Luminescence signal was obtained using the PerkinElmer ViewLux plate reader. Results were normalized to vehicle control (0% activity) and zero RLU (-100% activity).

Activity change, negative = inhibition, inactive:
CCN1C(=O)c2ccccc2S(=O)(=O)c2ccc(C(=O)NCc3ccc(F)cc3)cc21 -17.9%, Nc1c(NC/C=C\COc2cc(CN3CCCCC3)ccn2)c(=O)c1=O -8.53% [at 25.2 µM], CC(=O)N[C@@H](CS)C(=O)O 5.62%, COc1ccc(NC(=O)c2ccc3[nH]c(C)cc(=O)c3c2)cc1 14.9%, Cc1ccc(/C=C/C(=O)Nc2ccc(Cl)cc2Cl)cc1 24.6%, Cc1ccc(NC(=O)Cc2coc3c(C)c(C)ccc23)c(C)c1 -3.51%, Cc1ccc(-n2cc(C(=O)OCc3ccc(Cl)cc3)c3ccccc3c2=O)cc1 -11.3%, COC(=O)C1CCN(c2csc3ccc(C)cc3c2=O)CC1 14.8%, Cc1ccc(C)c(NC(=O)CN(Cc2ccccc2)S(=O)(=O)c2ccc3nc(C)sc3c2)c1 -20.6%, NCc1ccccc1Sc1ccccc1CO 5.38%, COc1cc(C2Oc3nc(SC)nnc3-c3ccccc3N2C(C)=O)cc(Cl)c1OC (configuration not stated) -17.3% [at 11.5 µM], Cc1cc(Br)ccc1NC(=O)c1sc2ncn(Cc3ccccc3Cl)c(=O)c2c1C 4.51%, Cc1cccc(NC(=O)CCS(=O)(=O)c2cc(Br)cc3c2N(C(=O)C2CC2)CC3)c1C -11.5%, CCCNC(=O)Cn1nc(C)c2c(C)n(-c3ccccc3)nc2c1=O -11.6%, CC1CCN(S(=O)(=O)c2cccc(C(=O)N(C)C3(C)CCS(=O)(=O)C3)c2)CC1 (configuration not stated) -27.5%, CC(NC(=O)C1CCN(C(=O)N2CCOc3ccccc32)CC1)c1ccccc1 (configuration not stated) 1.38%, CCCCNC(=O)CSc1nc2ccccc2nc1Cc1ccccc1 -10.4%, Cc1ccc(N2CC(NC(=O)C3CCCC3)CC2=O)cc1 (configuration not stated) -21.9%, CC(C)CCNC(=O)c1ccc(NC(=O)N2CCCCc3ccccc32)cc1 -2.68%, COc1cccc(N2CCN(C(=O)Cn3ncc4c3-c3ccccc3OC4)CC2)c1 -18.7%, Cc1ccc(C(=O)c2cn(CC(=O)Nc3ccc4c(c3)OCCO4)c3nc(C)ccc3c2=O)cc1 -16.5%, CC(C)CC(NC(=O)C1CCC(C)CC1)C(=O)OCC(=O)c1ccc(Cl)cc1 (configuration not stated) -28.4%, O=C(CSc1nc2ccccc2n1Cc1ccccc1)NCc1ccccc1 -25.1%, CSc1oc(-c2ccc(F)cc2)nc1S(=O)(=O)c1ccc(Br)cc1 -29.1%, Cc1cc(C)cc(OC(C)C(=O)Nc2nc3c(s2)CCCC3)c1 (configuration not stated) -19.6%, COc1ccc(NC(=O)c2ccco2)cc1NC(=O)c1ccc(OC(C)C)cc1 -18.5%, COc1ccc(Oc2ncnc3c2oc2ccccc23)cc1 40.8%, CCOC(=O)c1ccc(NC(=O)C2CCCN(c3cnccn3)C2)cc1 (configuration not stated) 15.6%, COc1cccc(/C=C(\C#N)c2nc3ccccc3c(=O)[nH]2)c1OC -11.2%, CCCC(C(=O)Nc1cc(C)c(Cl)cc1OC)N1Cc2ccccc2C1=O (configuration not stated) -12.4%, COc1ccc(CCNC(=O)Cn2nc(-c3ccc(Cl)cc3)ccc2=O)cc1OC -19.1%, COc1cn(CC(=O)Nc2cccc(C)c2)c(CN2CCCCC2)cc1=O -12.7%, Cc1ccc(NC(=O)N2CCC(CN3CCCCC3)CC2)c(Cl)c1 -11.7%, CCn1cc(/C=C(\NC(=O)c2ccc(OC)c(OC)c2)C(=O)NCCCn2ccnc2)c2ccccc21 -3.23%, Cc1nc2sccn2c(=O)c1S(=O)(=O)Nc1cccc(Cl)c1C -27.5%, CC(=O)c1ccc(N2CCN(S(=O)(=O)c3ccc(-c4cnc(C5CC5)o4)cc3)CC2)cc1 -23.7%, Cc1ccc(N2CCN(C(=O)CCS(=O)(=O)c3cc4c(cc3Cl)NC(=O)CO4)CC2)c(C)c1 -26.9%, CC1CCN(c2nc3c(S(=O)(=O)c4cccc(Cl)c4)nnn3c3ccsc23)CC1 -21.5%, O=C(O)Cc1cccc(OCCCN(Cc2cccc(C(F)(F)F)c2Cl)CC(c2ccccc2)c2ccccc2)c1 -1.81%, CC(C)(C)OC(=O)N1CCC(c2c(C(=O)N3CCN(c4ncccn4)CC3)cnn2-c2ccc(F)cc2)CC1 -18.7%, CCOC(=O)c1c(-c2ccc(OC)cc2)oc2ccc(OCc3ccc(F)cc3F)cc12 -9.34% [at 11.5 µM], Cc1cn2c(=O)cc(COC(=O)c3ccc(NC(=O)c4ccc(C(C)(C)C)cc4)cc3)nc2s1 -24.7%, COc1ccc(CNS(=O)(=O)c2csc(C(N)=O)c2)cc1OC -13%, COc1ccc(C2=Nc3ccccc3N(CC(=O)Nc3cccc(C(C)=O)c3)C(=O)C2)cc1 18.2%, CCOC(=O)c1ccc(NC(=O)C(CC)Sc2nncn3c2cc2oc(C)cc23)cc1 (configuration not stated) -0.125%, CCCCNc1nc2c(-c3cccc(Br)c3)nnn2c2ccccc12 8.39%, COc1cccc2c1cc1c(=O)n(CC(=O)NCCCN3CCN(C)CC3)nc(C)n12 -1.65%, O=C1Nc2c(c(=O)[nH]c(=O)n2-c2ccc(F)cc2)C1(NS(=O)(=O)c1ccc(Cl)cc1)C(F)(F)F (configuration not stated) -10.3%, COC(=O)c1ccc(OCC2c3cc(OC)c(OC)cc3CCN2C(=O)Cc2ccc(OC)c(OC)c2)cc1 (configuration not stated) -18.4%, CC(C)c1nn2c(=O)cc(COC(=O)c3ccc4c(c3)OCO4)nc2s1 -0.963%, Cc1cn2c(=O)c(S(=O)(=O)NCCc3ccc(Cl)cc3)c(C)nc2s1 -7.63%, CC(=O)N1CCc2c(sc3c2c(=O)n(-c2ccccc2)c(=O)n3CC(=O)c2ccc(F)cc2)C1 7.82%, COc1cc(C(=O)Nc2nnc(CC(C)(C)C)s2)cc(OC)c1OC -4.01%, CCc1ccc2occ(CC(=O)NCc3ccccc3)c2c1 -21.5%, COc1ccc(-c2nc3sc(CCNC(=O)c4ccc(C(C)(C)C)cc4)c(C)n3n2)cc1 52.9%, CCOc1ccccc1C(=O)Nc1cc2c(cc1C)n(C)c(=O)c(=O)n2C -5.89%, CCOC(=O)C1CCC(CN(Cc2ccc(OC)cc2)S(=O)(=O)c2ccc(F)c(C(=O)Nc3cc(Cl)ccc3OC)c2)CC1 (configuration not stated) 6.65%, COc1ccc(CNC(=O)CN(C)S(=O)(=O)c2ccc3[nH]c4c(c3c2)CCCC4)cc1 -28.9%, Cn1cc(-c2cc3n(n2)CCC(=O)N3CCCC(=O)NCc2ccccc2)c2ccccc21 -9.2%, CCN(CC)CCNC(=O)Cn1cnc2sc(C)c(S(=O)(=O)N3CCC(C)CC3)c2c1=O -10.7%, CCOC(=O)c1cnc2c(C)cc(C)cc2c1Nc1ccc(N2CCOCC2)cc1 -9.86%, Cc1oc(-c2ccc(Cl)cc2)nc1CN1CCCC(C(=O)NCc2ccc(Cl)cc2)C1 (configuration not stated) -6.05%
